# The list shows a part of the results.
# B1: PhoQ; a variant is named by its letters at X, in order, P23837 (parent)
# chain: MKKLLRLFFPLSLRVRFLLATAAVVLVLSLAYGMVALIGYSVSFDKTTFRLLRGESNLFYTLAKWENNKLHVELPENIDKQSPTMTLIYDENGQLLWAQRDVPWLMKMIQPDWLKSNGFHEIEADVNDTSLLLSGDHSIQQQLQEVREDDDDAEMTHSVAVNVYPATSRMPKLTIVVVDTIPVELKSSYMVWSWFIYVLSANLLLVIPLLWVAAWWSLRPIEALAKEVRELEEHNRELLNPATTRELTSLVRNLNRLLKSERERYDKYRTTLTDLTHSLKTPLXXLQXXLRSLRSEKMSVSDAEPVMLEQISRISQQIGYYLHRASMRGGTLLSRELHPVAPLLDNLTSALNKVYQRKGVNISLDISPEISFVGEQNDFVEVMGNVLDNACKYCLEFVEISARQTDEHLYIVVEDDGPGIPLSKREVIFDRGQRVDTLRPGQGVGLAVAREITEQYEGKIVAGESMLGGARMEVIFGRQHSAPKDE
# Variants of: B1
# Experiment: enrichment ratio after two sorts for PhoP signalling (ratio (wild type AVST 3.29)); higher = more functional
# Settings: with PhoP (E. coli)
row,Variant,enrichment ratio
1,LHLS,≤ 0.25
2,VYFG,≤ 0.25
3,SGKH,≤ 0.25
4,FMGT,≤ 0.25
5,WVYW,≤ 0.25
6,LTSW,≤ 0.25
7,VQCN,≤ 0.25
8,GWMK,≤ 0.25
9,IQCS,≤ 0.25
10,TSFY,6.35
11,RAPK,≤ 0.25
12,DQCS,≤ 0.25
13,KFQP,≤ 0.25
14,HFFN,≤ 0.25
15,EYNP,≤ 0.25
16,GDNV,≤ 0.25
17,EQCC,≤ 0.25
18,WFNW,≤ 0.25
19,FPNT,≤ 0.25
20,MPPN,≤ 0.25
21,HYTY,≤ 0.25
22,AEWS,8.72
23,ICAY,≤ 0.25
24,DSDD,≤ 0.25

row,Variant,enrichment ratio
1,ISGS,≤ 0.25
2,RPTM,≤ 0.25
3,HHRA,≤ 0.25
4,SKCF,13.8
5,NPMA,≤ 0.25
6,MPNK,≤ 0.25
7,EYLL,≤ 0.25
8,FMSQ,≤ 0.25
9,SDIW,≤ 0.25
10,PKDS,≤ 0.25
11,GSAH,≤ 0.25
12,DQTS,≤ 0.25
13,TPLL,≤ 0.25
14,AGYP,≤ 0.25
15,KCKM,≤ 0.25
16,AWFS,≤ 0.25
17,TKDY,≤ 0.25
18,DSEI,≤ 0.25
19,YNKN,≤ 0.25
20,QSRA,≤ 0.25
21,NLVM,≤ 0.25
22,AQRH,≤ 0.25
23,HTTW,≤ 0.25
24,LDMC,≤ 0.25

row,Variant,enrichment ratio
1,MLCH,≤ 0.25
2,NVQR,≤ 0.25
3,MNAN,6.51
4,AAST,2.87
5,KAFN,≤ 0.25
6,GLCW,2.02
7,TKWM,8.17
8,TCAD,≤ 0.25
9,WIVR,≤ 0.25
10,QFGS,≤ 0.25
11,WYQW,≤ 0.25
12,IMQR,≤ 0.25
13,EQHV,≤ 0.25
14,TQNI,≤ 0.25
15,KMQE,≤ 0.25
16,NWQS,≤ 0.25
17,NLRI,≤ 0.25
18,GNDH,≤ 0.25
19,YERK,≤ 0.25
20,AIRW,≤ 0.25
21,NKHL,≤ 0.25
22,MDSI,1.39
23,MCVT,≤ 0.25
24,WKDH,≤ 0.25

row,Variant,enrichment ratio
1,AATL,7.86
2,FEPF,≤ 0.25
3,STCG,9.46
4,HGML,21.6
5,GPFT,≤ 0.25
6,HSQI,1.32
7,DEGS,≤ 0.25
8,QIWY,≤ 0.25
9,NWSF,≤ 0.25
10,ELEL,≤ 0.25
11,LNQQ,≤ 0.25
12,AAPF,≤ 0.25
13,FIIA,≤ 0.25
14,NWLC,≤ 0.25
15,VNPW,1.58
16,NRQH,≤ 0.25
17,WLPK,≤ 0.25
18,FLPC,≤ 0.25
19,EVCI,≤ 0.25
20,PHIW,≤ 0.25
21,VHQQ,≤ 0.25
22,LEPR,≤ 0.25
23,HELD,≤ 0.25
24,PFDE,≤ 0.25

row,Variant,enrichment ratio
1,SQSW,≤ 0.25
2,IHWI,≤ 0.25
3,HCMF,≤ 0.25
4,ITQL,≤ 0.25
5,GTHR,≤ 0.25
6,RCQR,≤ 0.25
7,RRWA,≤ 0.25
8,VAVG,≤ 0.25
9,WAYK,≤ 0.25
10,TTSH,8.44
11,HRVG,≤ 0.25
12,GQTR,≤ 0.25
13,DERH,≤ 0.25
14,WDHS,≤ 0.25
15,IHFL,≤ 0.25
16,EPDA,≤ 0.25
17,MIGH,18.2
18,NNDQ,≤ 0.25
19,YYHA,≤ 0.25
20,FGEI,≤ 0.25
21,WKRD,≤ 0.25
22,LAKS,≤ 0.25
23,ITDE,≤ 0.25
24,NNAS,≤ 0.25

row,Variant,enrichment ratio
1,MRCF,≤ 0.25
2,ESNW,≤ 0.25
3,IFMD,≤ 0.25
4,LHHV,≤ 0.25
5,SVAE,13.4
6,SFKN,≤ 0.25
7,LEHR,≤ 0.25
8,RKAC,≤ 0.25
9,IVFG,≤ 0.25
10,TGMH,14.5
11,PFAK,≤ 0.25
12,LGVL,≤ 0.25
13,HIIH,≤ 0.25
14,GYWM,≤ 0.25
15,HYGW,≤ 0.25
16,ESGH,≤ 0.25
17,HQEG,≤ 0.25
18,LYDW,≤ 0.25
19,EKNY,≤ 0.25
20,YMIL,≤ 0.25
21,NEVR,≤ 0.25
22,RYYE,≤ 0.25
23,EYLS,≤ 0.25
24,KETW,≤ 0.25

row,Variant,enrichment ratio
1,IMWQ,≤ 0.25
2,TKAR,≤ 0.25
3,HNCR,≤ 0.25
4,SKAP,0.382
5,MRQY,≤ 0.25
6,YNAS,≤ 0.25
7,TRGP,≤ 0.25
8,WPMG,≤ 0.25
9,NLSA,≤ 0.25
10,LWTE,≤ 0.25
11,VHRS,≤ 0.25
12,MSGH,0.805
13,PQPD,≤ 0.25
14,ICTE,≤ 0.25
15,YVWK,≤ 0.25
16,MESD,≤ 0.25
17,GDAH,≤ 0.25
18,VPHQ,≤ 0.25
19,WCER,≤ 0.25
20,EDRR,≤ 0.25
21,TWCF,≤ 0.25
22,NDIS,≤ 0.25
23,DFWY,≤ 0.25
24,QRGA,≤ 0.25

row,Variant,enrichment ratio
1,WHEK,≤ 0.25
2,RSEC,≤ 0.25
3,ESNK,≤ 0.25
4,SAGT,≤ 0.25
5,YQMR,≤ 0.25
6,ESVV,≤ 0.25
7,SKRH,≤ 0.25
8,KHPH,≤ 0.25
9,PYSS,≤ 0.25
10,MQHY,12.6
11,VTSM,6.31
12,VKTW,≤ 0.25
13,FQNM,≤ 0.25
14,DEIR,≤ 0.25
15,RPFG,≤ 0.25
16,QNFC,≤ 0.25
17,KNVL,≤ 0.25
18,AQHI,≤ 0.25
19,LWHR,≤ 0.25
20,VPPG,≤ 0.25
21,NAGM,≤ 0.25
22,SATM,7.5
23,RHNS,≤ 0.25
24,KPRI,≤ 0.25

row,Variant,enrichment ratio
1,GCRN,≤ 0.25
2,YTII,≤ 0.25
3,QLSF,≤ 0.25
4,VFSV,≤ 0.25
5,NTSP,≤ 0.25
6,WFND,≤ 0.25
7,FAKA,≤ 0.25
8,KFVQ,≤ 0.25
9,NQRV,≤ 0.25
10,RDKM,≤ 0.25
11,LSNQ,≤ 0.25
12,LWTV,≤ 0.25
13,RNAP,≤ 0.25
14,CTNF,≤ 0.25
15,WYSY,≤ 0.25
16,GPCN,≤ 0.25
17,NEPI,≤ 0.25
18,NDVR,≤ 0.25
19,FFSD,≤ 0.25
20,WHKP,≤ 0.25
21,NEGT,≤ 0.25
22,QHEW,≤ 0.25
23,IDGK,≤ 0.25
24,HLFH,≤ 0.25

row,Variant,enrichment ratio
1,DWPK,≤ 0.25
2,GQLC,2.58
3,LWTF,≤ 0.25
4,YPAC,≤ 0.25
5,LNFM,≤ 0.25
6,KFFD,≤ 0.25
7,IERT,≤ 0.25
8,HVTF,≤ 0.25
9,MGSR,≤ 0.25
10,TMGF,13.3
11,STGN,6.31
12,VWIS,≤ 0.25
13,NMHC,≤ 0.25
14,NHPM,≤ 0.25
15,YKPN,≤ 0.25
16,SFCD,≤ 0.25
17,PRDT,≤ 0.25
18,YWAV,≤ 0.25
19,DQSF,≤ 0.25
20,FDHT,≤ 0.25
21,NWGP,≤ 0.25
22,IENS,≤ 0.25
23,SSIK,≤ 0.25
24,FTSY,≤ 0.25

row,Variant,enrichment ratio
1,QQLE,≤ 0.25
2,SKNA,≤ 0.25
3,IWID,≤ 0.25
4,HEGD,≤ 0.25
5,KQQG,≤ 0.25
6,VICG,≤ 0.25
7,KQKV,≤ 0.25
8,VPER,≤ 0.25
9,IASM,0.484
10,GWLQ,≤ 0.25
11,AQWF,≤ 0.25
12,DALT,≤ 0.25
13,HKRH,≤ 0.25
14,EPYC,≤ 0.25
15,WPHR,≤ 0.25
16,YENV,≤ 0.25
17,IVSW,≤ 0.25
18,IYCF,≤ 0.25
19,LMGH,≤ 0.25
20,YYFG,≤ 0.25
21,VSMN,≤ 0.25
22,HQSK,0.452
23,VEAC,0.99
24,QTMI,≤ 0.25

row,Variant,enrichment ratio
1,FRMH,≤ 0.25
2,YARP,≤ 0.25
3,IQCG,≤ 0.25
4,GSYT,≤ 0.25
5,YQCS,≤ 0.25
6,QKYM,≤ 0.25
7,HMGW,≤ 0.25
8,RPCP,≤ 0.25
9,KEDL,≤ 0.25
10,NAPP,≤ 0.25
11,LHFV,≤ 0.25
12,LPWG,≤ 0.25
13,IWRG,≤ 0.25
14,SFGI,≤ 0.25
15,HNMC,≤ 0.25
16,HDMF,≤ 0.25
17,IEFI,≤ 0.25
18,VHLQ,≤ 0.25
19,FHAM,≤ 0.25
20,WNPL,≤ 0.25
21,VMCD,≤ 0.25
22,TTKM,≤ 0.25
23,ELAH,≤ 0.25
24,QDYD,≤ 0.25

row,Variant,enrichment ratio
1,KEYM,≤ 0.25
2,ANKE,≤ 0.25
3,VMKG,≤ 0.25
4,YGVM,1.53
5,ALAD,≤ 0.25
6,QLGI,≤ 0.25
7,HDIY,≤ 0.25
8,SNDP,≤ 0.25
9,PTVP,≤ 0.25
10,GNPC,≤ 0.25
11,YAWP,≤ 0.25
12,VALI,10.8
13,HAHW,≤ 0.25
14,VDFR,≤ 0.25
15,GNIL,9.55
16,DCIM,≤ 0.25
17,YTGN,≤ 0.25
18,PIWM,≤ 0.25

# Source: a collection of fitness landscapes (doi:10.1126/science.1257360)
